Assay results as given in the supplement of paper PMC4604168 (melanoma cell lines).
This is one part of the list. Repeats are few or missing, and single values can be far off.

system: A2058; experiment: cell count relative to DMSO control; melanoma cells; higher = more viable cells; settings: library dose: standard library concentration; 72 h
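Further: cells treated in 1,536-well plates, then fixed and DAPI-stained, with nuclei counted from automated high-throughput microscope images.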

Compound | cell count [%]
Cc1cc(N2CCOCC2)cc2[nH]c(-c3c(NC[C@@H](O)c4cccc(Cl)c4)cc[nH]c3=O)nc12 + COc1ccc(COc2ccc(Cc3cnc(N)nc3N)cc2OC)cc1 [GW2580] (first compound 1 µM, partner dose 5 µM) | 93.1
Cn1nnc2c(C(N)=O)ncn2c1=O [temozolomide] + O=C(Nc1ccccc1)c1cc([N+](=O)[O-])ccc1Cl [GW9662] (first compound 10 µM, partner dose 10 µM) | 34.7
O=C(Nc1cc(C(F)(F)F)cc(C(F)(F)F)c1)c1cc(Cl)ccc1O + COc1ccc(-c2ccc3c(N4CCOCC4)nc(N4C[C@@H](C)O[C@@H](C)C4)nc3n2)cc1CO [KU0063794] (first compound 0.08 µM, partner dose 0.1 µM) | 90.9
O=C(O)[C@@H]1[O][Sb](=[O])([O][Sb]2(=[O])[O][C@H]([C@H](O)CO)[C@H](O)[C@H](C(=O)O)[O]2)[O][C@H]([C@H](O)CO)[C@@H]1O (some centres not stated) [stibogluconate] + COc1ccc(-c2ccc3c(N4CCOCC4)nc(N4C[C@@H](C)O[C@@H](C)C4)nc3n2)cc1CO [KU0063794] (first compound 10 µM, partner dose 0.1 µM) | 75
O=C(O)c1ccc2c(c1)nc(Nc1cccc(Cl)c1)c1ccncc12 + COC(=O)c1sccc1S(=O)(=O)Nc1ccc(Nc2ccccc2)cc1OC [GSK0660] (first compound 2 µM, partner dose 5 µM) | 88.3
O=C(O)c1ccc2c(c1)nc(Nc1cccc(Cl)c1)c1ccncc12 + O=C(O)C(=O)Nc1sc2c(c1C(=O)O)CCNC2 [TCS401] (first compound 2 µM, partner dose 8.33333 µM) | 78.2
O=C(O)c1ccc2c(c1)nc(Nc1cccc(Cl)c1)c1ccncc12 + Oc1cc(-c2nc(-c3ccccc3)[nH]c2-c2ccncc2)ccc1Cl [L779450] (first compound 2 µM, partner dose 1 µM) | 73.2
O=C(Nc1ccccc1)c1cc([N+](=O)[O-])ccc1Cl + O=C(O)C(=O)Nc1sc2c(c1C(=O)O)CCNC2 [TCS401] (first compound 10 µM, partner dose 8.33333 µM) | 96.6
Cn1nnc2c(C(N)=O)ncn2c1=O [temozolomide] + O=C1NC(=O)/C(=C/c2ccc(-c3ccc(F)cc3O)o2)S1 [AS252424] (first compound 10 µM, partner dose 5 µM) | 42.7
O=C(Nc1ccccc1)c1cc([N+](=O)[O-])ccc1Cl + O=c1cc(-c2cccc3c2Sc2ccccc2S3)oc(N2CCOCC2)c1 [KU55933] (first compound 10 µM, partner dose 5 µM) | 90.2
Cn1nnc2c(C(N)=O)ncn2c1=O [temozolomide] + COC(=O)c1sccc1S(=O)(=O)Nc1ccc(Nc2ccccc2)cc1OC [GSK0660] (first compound 10 µM, partner dose 5 µM) | 47.5
O=C(Nc1cc(C(F)(F)F)cc(C(F)(F)F)c1)c1cc(Cl)ccc1O + c1cc(-c2cnn3cc(-c4ccc(OCCN5CCCCC5)cc4)cnc23)ccn1 [Dorsomorphin] (first compound 0.08 µM, partner dose 2 µM) | 94.2
O=C(O)[C@@H]1[O][Sb](=[O])([O][Sb]2(=[O])[O][C@H]([C@H](O)CO)[C@H](O)[C@H](C(=O)O)[O]2)[O][C@H]([C@H](O)CO)[C@@H]1O (some centres not stated) [stibogluconate] + O=C1NC(=O)/C(=C/c2ccc(-c3ccc(F)cc3O)o2)S1 [AS252424] (first compound 10 µM, partner dose 5 µM) | 84.2
O=C(O)[C@@H]1[O][Sb](=[O])([O][Sb]2(=[O])[O][C@H]([C@H](O)CO)[C@H](O)[C@H](C(=O)O)[O]2)[O][C@H]([C@H](O)CO)[C@@H]1O (some centres not stated) [stibogluconate] + CCCCCCCCCCCC1=C(O)C(=O)C=C(O)C1=O [Embelin] (first compound 10 µM, partner dose 6 µM) | 97.4
Cn1nnc2c(C(N)=O)ncn2c1=O [temozolomide] + N#Cc1c(O)c2c(-c3ccc(-c4ccccc4O)cc3)csc2[nH]c1=O [A769662] (first compound 10 µM, partner dose 10 µM) | 41.6
Cc1cc(N2CCOCC2)cc2[nH]c(-c3c(NC[C@@H](O)c4cccc(Cl)c4)cc[nH]c3=O)nc12 + Cc1cc([N+](=O)[O-])ccc1NS(=O)(=O)c1cc(Cl)ccc1Cl [FH535] (first compound 1 µM, partner dose 5 µM) | 81.3
O=C(Nc1cc(C(F)(F)F)cc(C(F)(F)F)c1)c1cc(Cl)ccc1O + COc1cc2ncnc(Nc3ccc(Oc4ccccc4)cc3)c2cc1OC [SrcI1] (first compound 0.08 µM, partner dose 10 µM) | 74.9
